The values that follow are results of earlier work, collected in publication PMC8775252, “Characterization of Alternaria porri causing onion purple blotch and its antifungal compound magnolol identified from Caryodaphnopsis baviensis” (PLoS ONE, 2022).

For this data set the following is noted: cited from earlier work.

On to `C=CCc1ccc(O)c(-c2cc(CC=C)ccc2O)c1` [magnolol, 5,5’-di-2-propenyl-1,1’-biphenyl-2,2’-diol], for which the “mutagenic and genotoxic studies” value is recorded as “does not give rise to any concerns for human health”.
